Laboratory results published in the supplement of paper PMC4967469.
IC50 is the fitted dose that halves viability relative to control wells, and lower means more sensitive; a fit beyond the top or the lowest dose is shown as a bound at that dose. The AUC spans the tested range (256-fold, ending at the top dose) of the same fit; values near 1 show little effect. For part of these data: A top dose marked as inferred comes from the curve model; the source does not state it.

Experiments:
Test in all cases: Viability of human cancer cell lines after 72 h of drug (GDSC screen)
TGX221 = compound: Cc1cc(C(C)Nc2ccccc2)c2nc(N3CCOCC3)cc(=O)n2c1 [TGX221]; conditions: top dose 10 µM
Description: (§1)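 Human cancer cell lines in 384-well plates, medium with 10% serum, drug for 72 h over a 256-fold dose range (nine 2-fold or five 4-fold steps up to the top dose). Adherent lines were fixed and stained with the nucleic acid dye Syto60, suspension lines read with resazurin; signal relative to control wells, capped at 0 and 100%. One two-parameter sigmoid per drug and line, fitted in a mixed model over all curves with the slope shared within a line.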

PD-173074 = compound: CCN(CC)CCCCNc1ncc2cc(-c3cc(OC)cc(OC)c3)c(NC(=O)NC(C)(C)C)nc2n1 [PD-173074]; conditions: top dose 2 µM; top dose inferred
Description: as §1

Lapatinib = compound: CS(=O)(=O)CCNCc1ccc(-c2ccc3ncnc(Nc4ccc(OCc5cccc(F)c5)c(Cl)c4)c3c2)o1 [Lapatinib]; conditions: top dose 2 µM
Description: as §1

SB590885 = compound: CN(C)CCOc1ccc(-c2nc(-c3ccncc3)c(-c3ccc4c(c3)CC/C4=N\O)[nH]2)cc1 [SB590885]; conditions: top dose 5 µM; top dose inferred
Description: as §1

Cell Line	AUC (TGX221)	IC50 (TGX221)	AUC (PD-173074)	IC50 (PD-173074)	AUC (Lapatinib)	IC50 (Lapatinib)	AUC (SB590885)	IC50 (SB590885)
KMOE-2 (acute myeloid leukaemia, suspension)	0.99	> 10 µM	0.966	> 2 µM	0.983	> 2 µM	0.952	> 5 µM
KNS-42 (glioma, adherent)	0.862	> 10 µM	0.984	> 2 µM	0.94	> 2 µM	0.981	> 5 µM
KNS-81-FD (glioma, adherent)	0.866	> 10 µM	0.979	> 2 µM	0.932	> 2 µM	0.98	> 5 µM
KP-N-YN (neuroblastoma, adherent)	0.986	> 10 µM	0.974	> 2 µM	0.967	> 2 µM	0.987	> 5 µM
KS-1 (glioma, adherent)	0.811	6.98 µM	0.951	> 2 µM	0.815	1.46 µM	0.98	> 5 µM
KU812 (chronic myeloid leukaemia, suspension)	0.951	> 10 µM	0.939	> 2 µM	0.984	> 2 µM	0.948	> 5 µM
KURAMOCHI (ovary, adherent)	0.895	> 10 µM	0.984	> 2 µM	0.964	> 2 µM	0.984	> 5 µM
KY821 (leukaemia, suspension)	0.99	> 10 µM	0.967	> 2 µM	0.989	> 2 µM	0.989	> 5 µM
L-363 (myeloma, suspension)	0.99	> 10 µM	0.947	> 2 µM	0.991	> 2 µM	0.973	> 5 µM
L-428 (Hodgkin lymphoma, suspension)	0.993	> 10 µM	0.984	> 2 µM	0.993	> 2 µM	0.992	> 5 µM
L-540 (Hodgkin lymphoma, suspension)	0.99	> 10 µM	0.99	> 2 µM	0.978	> 2 µM	0.99	> 5 µM
L-1236 (Hodgkin lymphoma, suspension)	0.967	> 10 µM	0.992	> 2 µM	0.985	> 2 µM	0.992	> 5 µM
LAMA-84 (chronic myeloid leukaemia, suspension)	0.986	> 10 µM	0.859	1.7 µM	0.987	> 2 µM	0.981	> 5 µM
LAN-6 (neuroblastoma, adherent)	0.985	> 10 µM	0.985	> 2 µM	0.982	> 2 µM	0.985	> 5 µM
LB373-MEL-D (melanoma, adherent)	0.963	> 10 µM	0.99	> 2 µM	0.962	> 2 µM	0.99	> 5 µM
